Laboratory results published in PubChem BioAssay AID1963576 (National Center for Advancing Translational Sciences (NCATS), 2024).
Hit rate of the full screen: of about 46,000 compounds, about 60 (0.1%) were called active. About 3% were inconclusive and are not listed. Calls follow the shape of the dose curve; as a rule, active = well fitted inhibition curve with a large enough effect; inconclusive = small, poorly fitted or top-dose-only effect; inactive = no such curve, though single readings can be large or run the other way. This is one part of the list.

Test: Primary qHTS assay for Inhibitors of ovarian cancer metastasis using an organotypic tumor microenvironment (TME) model. Also: nearly all actives have a fitted effect of over 65% in size.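 As to activity change, negative = inhibition: plate controls were DMSO wells for no effect and tomatine positive control wells for full effect.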
Details: SKOV3ip1-GFP adhesion/invasion on 3D omental model, fluorescence; series mostly up to 45.8 µM; activity change, negative = inhibition: at the top concentration
Method in brief: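 Adhesion/invasion was scored as fixed GFP-labeled SKOV3ip1 cell counts (488/509 nm), normalized to DMSO and tomatine controls. Cancer cells in serum-free medium, with four compound doses (0.36-46 umol/L), sat 2 hr at RT then 16 hr at 37 C on a 48 hr fibroblast/mesothelial/ECM culture.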

Activity change, negative = inhibition, inactive:
O=C(CCCCn1c(=O)c2ccccc2n(CC(=O)Nc2cccc(F)c2)c1=O)NCCc1ccccc1 34.8%, COc1ccc(-c2nn(-c3cccc(F)c3)c3c2cnc2cc(OC)c(OC)cc23)cc1 -8.79%, COc1ccc2oc(=O)c(-c3nc(-c4cccs4)no3)cc2c1 -0.543%, Cc1ccc(NC(=O)Cn2nnc(C(=O)NCc3ccc4c(c3)OCO4)c2N)cc1Cl -1.23%, O=C(NC1CC(=O)N(c2ccc(F)cc2)C1)C1CC1 (configuration not stated) -0.421%, CCc1ccc(NC(=O)Cn2cc(S(=O)(=O)N3CCCC3)c(S(=O)(=O)N3CCCC3)c2)cc1 7.48%, Cc1cc(C)cc(NC(=O)CCCc2nc(-c3ccccc3Cl)no2)c1 9%, CCOCC(O)COc1ccc(NC(=O)CC[S+](C)C)cc1 (configuration not stated) -13.6%, CCOC(=O)c1cc2c(=O)n3ccccc3nc2n(Cc2ccco2)c1=NC(=O)c1ccc(OCC)cc1 4.56%, Cn1c(=O)n(CCCc2ccccc2)c(=O)c2c1nc1n2CCN1c1ccc(F)cc1 -0.543%, Cc1nn(C(=O)c2ccc(Br)cc2)c(C)c1Sc1ccccc1 -6.01%, COc1cc(OC)c(N(C)C(=O)c2sc3nc4n(c(=O)c3c2C)CCCC4)cc1Cl -17%, COc1ccc(CN2COc3ccc4c(-c5ccccc5)cc(=O)oc4c3C2)cc1OC -7.71%, CCN(c1cccc(C)c1)c1ncnc2c1cnn2-c1cccc(Cl)c1 -20%, CCCCOC(=O)c1ccc(NC(=O)c2cnc3ccc(C)cn3c2=O)cc1 1.35%, Cc1ccc(NC(=O)Cn2c(=O)n(Cc3nc(-c4ccccc4)no3)c(=O)c3cc4c(cc32)OCO4)c(C)c1 9.01%, Cc1ccc(NC(=O)C2=CC(c3ccc4c(c3)OCO4)=NS(=O)(=O)N2C)cc1 -1.06%, COc1ccc(Nc2c(-c3ccccn3)nc3ccc(Cl)cn23)cc1 0.238%, COc1cccc(Nc2nc3ccc(C)cc3nc2-n2nc(C)cc2C)c1 4.87%, COc1ccc(CCNC(=O)CSc2n[nH]c(-c3ccccc3Cl)n2)cc1OC 11.3%, COc1ccc(Cl)cc1NC(=O)CSC1=Nc2ccccc2C2=NC(CC(=O)NCc3cccs3)C(=O)N12 (configuration not stated) 5.37%, O=C(CSc1cn(CC(=O)N2CCCCC2)c2ccccc12)Nc1ccc(C(F)(F)F)cc1 9.18%, COc1cccc(N2CCN(S(=O)(=O)c3ccc(-c4ccno4)cc3OC)CC2)c1 4.94%, COc1ccc(OC)c(C2NC(=O)NC(C)=C2C(=O)Nc2ccc(F)cc2)c1 (configuration not stated) 8.04%, Cc1ccc(C(c2sc3nc(-c4ccco4)nn3c2O)N2CCC3(CC2)OCCO3)cc1 (configuration not stated) -2.41%, CCN(CC)CCNC(=O)c1sc2ncccc2c1-n1cccc1 0.555%, Cc1ccc(C(=O)NCc2ccc(F)cc2)cc1NC(=O)c1nsc2ccccc12 -5.86%, COc1ccc(NC(=O)c2ccco2)cc1NC(=O)COc1ccc(Cl)cc1C -10.6%, COc1cccc(N2CCN(C(=O)c3ccc(NC(=O)c4nsc5ccccc45)cc3)CC2)c1 -3.19%, CN1CCN(CCOc2cc(OC3CCOCC3)c3c(Nc4c(Cl)ccc5c4OCO5)ncnc3c2)CC1 1.87%, COc1ccc(CNC(=O)CCc2nc(-c3ccc(C)cc3)no2)c(OC)c1 -19.8%, Cn1c(=O)n(C)c2cc(N3CCCCC3)c(NC(=O)c3ccc(C(C)(C)C)cc3)cc21 2.69%, Cn1cc(S(=O)(=O)c2ccccc2)c(=O)c2cc(F)c(N3CCCCCC3)cc21 -8.33%, Cc1ccc(NC(=O)c2ccc(NC(=O)N3CCSc4ncccc43)cc2)c(C)c1 0.76%, COc1cc(C(=O)Nc2nonc2-c2ccc(C)c(C)c2)cc(OC)c1OC 0.305%, COc1ccc(C)cc1-n1cnc2cc(C(=O)NC3CCCC3)ccc21 -4.04%, COc1ccccc1NC(=O)Cn1c(=O)n(CCCCCC(=O)NCc2ccccc2)c(=O)c2sccc21 3.5%, CCOC(=O)c1c(C)oc2nc(C)nc(NCc3ccccc3OC)c12 4.18%, O=C(CSc1nc2c([nH]c3ccccc32)c(=O)n1-c1ccc(Cl)cc1)NCC1CCCO1 (configuration not stated) 29%, CCOc1ccc(/C=C/c2nc(C#N)c(NCCc3ccccc3)o2)cc1 -4.61%, Cc1cc(C(=O)Nc2c(C)nc3ccccn3c2=O)ccc1[N+](=O)[O-] 0.837%, O=C(NCC1CN(c2ccc(N3CCOCC3=O)cc2)C(=O)O1)c1ccc(Cl)s1 (configuration not stated) -13.5%, CC1Cc2cc(S(=O)(=O)N(Cc3ccccc3)C(C)C)ccc2N1C(=O)C1CCC1 (configuration not stated) -6.66%, Cc1ccccc1Nc1c(-c2cccs2)nc2cccc(C)n12 0.0995%, CCOc1cc(CNC(=O)Cn2c(-c3cccs3)cc3cc(F)ccc32)ccc1OC -3.31%, CC(=O)Nc1ccc(S(=O)(=O)NC2(C(F)(F)F)NC(=O)N(CCc3ccc(F)cc3)C2=O)cc1 (configuration not stated) 9.43%, COc1cccc(C(=O)Nc2ccccc2-c2nnc(-c3cccc(OC)c3)o2)c1 0.119%, O=C(Nc1cccc(F)c1)c1ccc(-c2ccccc2)s1 14.8%

outcome, inactive:
CC(C)NC(=O)CCN1C(=O)c2ccccc2Sc2ncccc21, CSc1nc2sc3c(c2c(=O)n1-c1ccccc1)CCC(C(C)(C)C)C3 (configuration not stated), O=C(c1cc(-c2ccc(O)cc2)on1)N1CCN(c2ccccc2)CC1, CCn1c(=O)cc(OCC(=O)N2CCN(c3ccc(F)cc3)CC2)c2ccccc21, CCc1ccc(-n2c(=O)c3cccnc3n2CC(=O)NCc2ccc(C)cc2)cc1, O=C(NCc1ccccc1)c1cnc(N2CCCCC2)c2ccccc12, O=C(CSc1nc(-c2ccc(F)cc2)cc(C(F)(F)F)n1)NCCc1ccccc1, COC(=O)c1c(C)nn(-c2ccc(F)cc2)c1-n1cccc1, CCc1cccc(Nc2ncnc3onc(-c4ccc(F)cc4)c23)c1, Cc1ccc(NC(=O)CSc2nc(-c3ccccc3Cl)nc3cc(=O)[nH]n23)c(C)c1, O=C(Nc1ccc2nc(SCC(=O)N3CCc4ccccc43)sc2c1)c1ccccc1F, Cc1cc(C)cc(-n2c(SCC(=O)Nc3ccc4c(c3)OCCO4)nc3c([nH]c4ccccc43)c2=O)c1, Cc1ccc(-n2c(SCC(N)=O)nc3c(oc4ccccc43)c2=O)cc1C, O=C(Cn1c(=O)oc2cc(S(=O)(=O)NCc3ccccc3)ccc21)NCc1ccc(Cl)cc1
